Reference: the RNAGym collection of RNA variant scans (doi:10.7554/elife.90254)
Read counts are not given, so values of variants with three or more changes are uncertain.

B1: LINE1-full (parent)
chain: UACGUAGGUGGUUUUCCCCUGAUAGUGCUAAGGGGGCCUGGAAGUUUGGACUGGGCAGAGCUCAACACAGCGUGGCAAAGUGGCUGUGGCUAGACUGCCUCUCUGGAUUCCUCGUCACUCAGCAGGGCAUCUCUGAGAGAAAUGCC

Variants of: B1
Assay: self-cleavage, relative activity (ratio to wild type); higher = more cleavage; in vitro, sequencing; the parent is a self-cleaving ribozyme

Variant | self-cleavage
G34C G125A A136U | 1.78
A50G A78G A117G | 1.15
U14C C17A C38A | 1.25
U29C U109C A117G | 1.53
U62A A78U U81C A136G | 0
U1C A64G U108A U115C U130A A141G | 0.48
U12G U13A U15C A50G | 0.92
U9C U87C A136G | 0
U52C G75A U85A U132C | 0.04
U12G C51U A136U | 1.39
A65G A77C U100C | 0
A57C C63A A129C | 0.07
A43G A77G A141G U143C | 1.34
A2G U5A U143C | 0.41
G86U U115A U143A | 0.07
U1C A6U G54U A78G | 0.34
U47C U81C G135A | 2.12
A22G U47A A59G G83U A117G U143C | 0
A57U A64G U100C U130C | 0.45
U39C U73C G97A U119C | 0.09
U15C C17A A43G | 0.93
G11U U15A U52C A94G | 0.74
U5C A22U A69G C76G U130C | 0.87
U26C U46C U87A U130C | 0.23

Variant | self-cleavage
A69G U73A A79G U96C | 0
U14A U109A A138G | 0.56
U62A U112C A121G G125C | 0
U26C A43G A138U | 0.93
A57G C84G A138G | 0.03
A69U U102A C116U | 0.05
G41U U45G U85A A136U | 0.03
A59G U119C G126A | 0.3
A50U U100C U134C | 1.38
G7A A67G A79G A138U A142U U143A | 0.18
U73A C111U A140G A141U | 1.16
A24G A30G G74A C116U | 0.85
U73A U85C A129G A142G | 0.15
A43U A79G U87C | 0.2
A31U U134C A138G | 2.16
U20C U96C A124U U134G | 0.11
A50G A64U A107G | 0.82
U87C U108C A142U | 0.13
U14C U62A U109C | 0
U46C G122U A138G | 1.6
U13C A24U U52A | 0.97
A30G A69G U130A | 1.05
U20C U23C G82A G106A | 1.93
U12C U14C A22G U91C | 0

Variant | self-cleavage
U9A U13A A22G A138G | 0
U23A A107G A124G | 0.84
U9A U62C U108C | 0
U14C U29C U134A | 0.14
U15C G127A U143C | 1.55
A42G A94G U112C | 0.21
A69U U100C U134C | 0.14
G83A U100C A140G | 0.93
U13A A50G A64G A79G | 0
A78G U112C U130A | 1.75
U14C U85A U108C | 0.18
U12C C66A U130C | 0.03
A6U U39C G80U | 1.53
A43G G72A A129G | 0.57
U1C A43G A77G G127A G137U | 1.46
A31U U112C A129G | 1.4
A2G A30U A141G | 0.59
U1C U26A A30G A50G U112C C113U A142G | 0.19
U15C G122C U143A | 1.49
G33A U46A A65G | 0.07
A42U U108C A117U | 0.51
U13C U45C A57U C63A | 0.11
U13G A57U A142G | 0.16
U12G U96C C131U U143A | 0.25

Variant | self-cleavage
U45A U91A A92U U112C | 0.81
A50G C56U U109C | 0.08
U9A G25A A92G U115G | 0
G70A G106A U132C | 0.17
C28U U47A U112C | 0.93
U20C A50G A59G C116A | 0
U12C U15A A30U A50G A92G | 0
U100C U115A G135A | 2.79
C17G A43G A50G A79U U134C | 1.25
A42G U46C U134C | 2.43
A65U U73C G105A U143C | 0.22
U12C A57G G72A | 1.55
A42G A57G C61A U115A | 0.07
U47C G82A U119C A142U | 2.53
A65U A78G A92G | 0.14
A2G U14C U26A U39C A57U U85A | 0.18
U87A U119C U143C | 0.11
G32A A64G U108C | 0
U115A A124C U132A | 1.81
U5C A31U U130C | 1.02
U20C U47C U73A | 2.36
U1C A64G U100C | 0.77
G32A A107G U108C | 0.77
C19A U45C A141G | 1.77

Variant | self-cleavage
A64G U104C C128U A138G A142G | 0.47
U13A A31G A43U A141G | 0.97
G21A C63U C71G C110A A129C A141G | 0.1
A2G A50U C120A | 0.86
C17A A30G U46A | 0.55
A42G U100C A121U A138G | 1.17
U14C U15A A42G G82A | 1.13
U14C U29C G32U A77C G83A | 0
G60A G72A A77G | 0.01
U39C U91A A107G A129G U143C | 0
U14C A22G U100C U115C | 0.51
U9C A22G A64U A94C | 0
U5C A107C C145U | 0.88
C113U A117G U143C | 0.71
A69G C76U U102C | 0.76
A43G A69U A141G | 0.09
G44U U45C A57G U130A | 0.63
U62A U132A U134A | 0.04
U14C U39C U81A U102C | 1.53
U5C U52A U85A | 0.15
A43G U46A U96C U102C A140C | 0
A30G U45C A69U A142G | 0.28
A50G A59G U87A U96C | 0
U12G G53A A65G | 0.11

Variant | self-cleavage
U26G G53U C76U A77C | 1.2
A50G A67U G88U | 0.06
U15C C71U A79G U81C A94C | 0
A6G U132C U143A C145U | 0.48
C19U U26A U46C U73C | 1.36
U13C U108G A138U | 2.3
U13A U108C A136G | 2.82
A6G A77G U108C | 0
G8C U9C G35U A65U U104C | 0.77
U29C U47C U112C A141C | 1.04
A65G A129G A141G | 0
A50G U108A U109C | 1.84
A57C U108C U132C | 0
U15C U20C A59U A79G U96C | 0.61
U9C U26C A138U A141G | 1.13
A2G U12G U23C U45C A50U U134A A136G | 0.57
U15A A22G U109C | 1.31
U13C A94G U134C | 0.16
C90U U91C C133U A140G | 0.06
U15A U130C A138G | 1.04
U1C U29C A57G U91C | 0.77
U9A A42U A57G U100G | 0.48
U1C A2G A43G G82A | 0.96
A67C A92G A107U | 0

Variant | self-cleavage
A22G U23A U85C A117U | 0.82
A30U C56U U96C U109C | 0.12
U100C U104A U143C | 1.53
A50U A69G U91C | 0.1
G7A G40A U96C A117G U119C U143C | 0
A2G U39C U73A A141G A142G | 0
U15A U115C A136G | 1.77
U39A A94U A117U | 0.1
U1C U96A U100A | 0.09
A31G A43G A78G A121U A142G | 0
C84U U104C A117U U130C | 0.18
C19U A42G U134A | 0.76
A57G C71U U96C U130C | 2.63
U14C U15C U26C G80A C99U U100C | 1.02
A2C U12G A77G | 2.51
G54A U108A C118A | 0.24
U85C U100A U119C | 0.28
G8A U14C U85A | 0.17
C28U U62A U96C U109A U112C | 0.1
A2G U20C G55U U112C | 0.32
G82A U100A A117G | 0.67
G88A A107G A124G A141G | 0.07
U26C U100C A138G | 2.93
